# According to PubChem BioAssay AID504832 (National Center for Advancing Translational Sciences (NCATS), 2011):
# About 18,000 (5.8%) of roughly 310,000 compounds were called active. This list was built around the results that the source calls inconclusive (neither active nor inactive); the mix of calls is not that of the screen. Calls follow the shape of the dose curve; as a rule, active = well fitted inhibition curve with a large enough effect; inconclusive = small, poorly fitted or top-dose-only effect, or another doubt; inactive = no such curve, though single readings can be large or run the other way. Potencies of inconclusive entries are left out as doubtful fits.
# Experiment: Primary qHTS for delayed death inhibitors of the malarial parasite plastid, 48 hour incubation
# Conditions: P. falciparum luciferase growth in erythrocytes; series mostly up to 28.7 µM
# How it was run: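 Compounds are pin-transferred into medium, infected erythrocytes (2% hematocrit, 0.1% parasitemia final) are added, and plates sit one parasite generation at 37 C in 5% CO2. Detection reagent is then added and luminescence measured.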
# Potency is read from the fitted curve at half-maximal effect; tags tell the direction and shape of the fitted curve.
row,Structure (SMILES),Potency
1,CCn1c(=O)c(C(=O)NCc2ccccc2)c(O)c2ccccc21,"inconclusive [inhibitor, single point]"
2,CCN(CC(=O)Nc1ccc(OC(F)F)cc1)C1CCCCC1,"inconclusive [inhibitor, single point]"
3,CCOC(=O)CN1C(c2ccc(O)cc2)Nc2ccc(Br)cc2C1c1ccccc1 (centres undefined),"inconclusive [inhibitor, single point]"
4,Cc1cccc(CNc2ncnc3ccc(-c4ccc5c(ccn5C)c4)cc23)c1,active: 3.29 µM
5,Cc1cccc2cc(CN(CC3CCCO3)C(c3nnnn3Cc3ccco3)C(C)C)c(=O)[nH]c12 (centres undefined),"inconclusive [inhibitor, partial curve, poor fit]"
6,CSCCC(NC(=O)c1ccc(Cl)c([N+](=O)[O-])c1)C(=O)N1CCN(C/C=C/c2ccccc2)CC1 (centres undefined),"inconclusive [inhibitor, partial curve, poor fit]"
7,CCN(CC)c1nc(C#N)cc(-c2ccc(OC)cc2)n1,active: 13.1 µM
8,COc1ccc(-c2c(C#Cc3ccsc3)c3cc(-c4ccc(OC)nc4)ccc3n2C)cc1,"inconclusive [inhibitor, single point]"
9,O=C(NC(=S)NCCC1=CCCCC1)c1ccc(Br)o1,inactive
10,CC(=O)Nc1ccc(NC(=O)C2CCC(CNS(=O)(=O)c3cccc4nsnc34)CC2)cc1 (centres undefined),"inconclusive [inhibitor, partial curve, poor fit]"
11,O=C(O)c1cnc(-c2ccccc2)nc1Oc1ccccc1,inactive
12,CN(C)/N=C/c1cn(-c2ccccc2)nc1-c1cccnc1,inactive
13,O=C(N/N=C/C(Br)=C/c1ccccc1)C1CC1,"inconclusive [inhibitor, partial curve, poor fit]"
14,CC1CCC(=NNC(=O)Cc2ccccc2)CC1 (centres undefined),"inconclusive [inhibitor, partial curve, poor fit]"
15,COc1ccccc1Cn1c(=S)[nH]c2cc(C(=O)NCC3CCCO3)ccc2c1=O (centres undefined),"inconclusive [inhibitor, partial curve, poor fit]"
16,O=C(N=C1SCC(=O)N1c1ccccc1Cl)c1ccco1,inactive
17,Cc1ccn2c(=O)c(C(=O)NC3CCCCC3C)c(O)nc2c1 (centres undefined),active: 2.33 µM
18,CC/C(=N\NC(=S)Nc1cccc(C)c1)c1ccccc1,active: 9.28 µM
19,CCN(C(=O)C(C)Sc1ccc(S(=O)(=O)N2CCOCC2)cn1)c1ccccc1 (centres undefined),active: 13.1 µM
20,CCOC(=O)C1(CCc2ccccc2)CCN(Cc2cc(OC)c(OC)cc2OC)CC1,"inconclusive [inhibitor, partial curve, poor fit]"
21,CCN(C(=S)NCc1ccccc1)c1cccc2ccccc12,"inconclusive [inhibitor, partial curve]"
22,O=C(Nc1ccc2c(c1)CN(Cc1ccccc1O)CC2)C1CCCO1 (centres undefined),"inconclusive [inhibitor, single point]"
23,COc1ccc(CCc2nnc(CCC(=O)NCc3cnc4ccccn34)o2)cc1,inactive

row,Structure (SMILES),Potency
1,CCOC(=O)C1=C(Nc2ccccc2)CC(C)(O)C(C(=O)OCC)C1c1ccc(Cl)cc1 (centres undefined),"inconclusive [inhibitor, partial curve, poor fit]"
2,O=C(COc1ccccc1F)N1N=C(c2cccs2)CC1c1ccco1 (centres undefined),"inconclusive [inhibitor, single point]"
3,O=C(NCc1ccccc1F)c1cccc(S(=O)(=O)N2CCCCCC2)c1,"inconclusive [inhibitor, single point]"
4,CCOc1ccc(C(CC(=O)O)NC(=O)C(c2ccccc2)c2ccccc2)cc1OC (centres undefined),"inconclusive [inhibitor, single point]"
5,NNc1nc(-c2ccccc2Cl)nc2sc3c(c12)CCCC3,"inconclusive [inhibitor, single point]"
6,S=C(NCc1ccccc1)Nc1ccc(Oc2ccccc2)cc1,"inconclusive [inhibitor, single point]"
7,Cc1ccc(NC(=O)C2CCN(c3ncnc4sc(C)c(C)c34)CC2)cc1S(=O)(=O)N(C)C,active: 4.15 µM
8,Cc1cc(Cl)ccc1NC(=S)NCc1ccc(F)cc1,"inconclusive [inhibitor, single point]"
9,CCc1nc(-c2ccc(-c3ccc(OC)cc3)nc2OC)no1,inactive
10,Cn1nnnc1SCC(=O)N1CCN(c2cccc(Cl)c2)CC1,inactive
11,CC1CCN(S(=O)(=O)c2ccc3c(c2)N(CC(=O)NCCCN2CCCCC2)C(=O)CS3)CC1,"inconclusive [inhibitor, partial curve, poor fit]"
12,CCOC(=O)CSc1nnc(CNC(=O)Cc2ccccc2)n1-c1ccccc1OC,"inconclusive [inhibitor, single point]"
13,FC(F)(F)c1cc(-c2ccccc2)nc(-n2cc(Cl)cn2)n1,"inconclusive [inhibitor, single point]"
14,Cc1ccc(-c2csc3ncnc(SCC(=O)NCC4CCCO4)c23)cc1 (centres undefined),"inconclusive [inhibitor, single point]"
15,CC(C)c1ccc(N(CC(=O)NCc2ccco2)C(=O)CCC(=O)Nc2ccccn2)cc1,inactive
16,CCCCn1c(N)c(N(CCOC)C(=O)CSCc2c(C)noc2C)c(=O)[nH]c1=O,"inconclusive [inhibitor, full curve, poor fit]"
17,COc1ccc(OC)c(NC(=O)c2oc3ccccc3c2NC(=O)C2CC2)c1,inactive
18,Cc1ccc(S(=O)(=O)N2CCc3c2cc([N+](=O)[O-])cc3[N+](=O)[O-])cc1,"inconclusive [inhibitor, single point]"
19,COc1ccc(S(=O)(=O)N2CCC(C(=O)NCc3ccco3)CC2)cc1,active: 3.29 µM
20,CCOC(=O)c1cc(C)nc(SC)c1C#N,"inconclusive [inhibitor, partial curve]"
21,CN(C)C(=S)SC(=S)N(C)C,active: 5.36 µM
22,O=C(CCC1CCCN(Cc2ccc3c(c2)OCCO3)C1)NCc1ccc(F)c(F)c1 (centres undefined),"inconclusive [inhibitor, single point]"
23,O=C(NCCC(=O)N1CCN(S(=O)(=O)c2ccc(Cl)cc2)CC1)Nc1ccccc1,"inconclusive [inhibitor, partial curve, poor fit]"

row,Structure (SMILES),Potency
1,Cc1ccccc1CNC(=O)c1ccccc1N(C)S(=O)(=O)c1ccccc1,"inconclusive [inhibitor, single point]"
2,Cc1onc(-c2ccccc2Cl)c1C(=O)OCc1cnc(Cl)s1,inactive
3,C/C(=N\N1CCN(C2c3ccccc3-c3ccccc32)CC1)c1ccncc1,"inconclusive [inhibitor, partial curve]"
4,O=C(N/N=C/c1ccc(Sc2ccccn2)o1)c1cc2ccccc2cc1O,"inconclusive [inhibitor, single point]"
5,CCOc1ccc2nc(N(CCN(C)C)C(=O)c3cc4ccccc4cc3OC)sc2c1,"inconclusive [inhibitor, single point]"
6,O=C(Nc1cnc2ccccn2c1=O)c1ccc(Cl)cc1Cl,inactive
7,NCC(c1ccccc1)c1c[nH]c2ccccc12 (centres undefined),inactive
8,COc1cc(CNC2CCCC2)c(Br)cc1OCc1ccccc1,"inconclusive [inhibitor, single point]"
9,CCOC(=O)[C@H]1[C@H]2COc3ccc(Cl)cc3[C@@H]2N2C(=O)c3ccc(Cl)cc3NC(=O)[C@@]12C,active: 10.4 µM
10,Cc1cc(C(=O)COC(=O)/C=C/c2cccc(F)c2)c(C)n1C,inactive
11,Nc1ncnc(Sc2ccc(Cl)cc2)c1[N+](=O)[O-],"inconclusive [inhibitor, partial curve, poor fit]"
12,CNC(=S)N(CCc1c(C)[nH]c2ccc(C)cc12)Cc1ccc(OC)c(OC)c1,"inconclusive [inhibitor, single point]"
13,Cc1cc(N/N=C/c2cccc(F)c2)nc(NCc2ccccc2)n1,"inconclusive [inhibitor, partial curve]"
14,O=C(O)c1ccccc1NC(c1ccccc1)c1ccc(Cl)cc1 (centres undefined),inactive
15,COc1ccc(/C=C/C(=O)NC(=S)Nc2ccc(S(=O)(=O)N=C(N)N)cc2)cc1OC,inactive
16,O=C(/C=C/c1ccc(Cl)c([N+](=O)[O-])c1)c1ccc(O)cc1,"inconclusive [inhibitor, single point]"
17,COc1ccc(NC(=O)Cc2c[nH]c3ccccc23)cc1S(=O)(=O)N1CCCCC1,"inconclusive [inhibitor, single point]"
18,c1ccc(OCCn2cnc3ccccc32)cc1,inactive
19,Cc1cc(C)c(NC(=O)CNC(=O)Cc2sc(C)nc2-c2ccc(F)cc2)c(C)c1,active: 13.1 µM
20,Cc1ccc(CNC(=O)C2CC3Cn4c(nc5cc6ccccc6cc54)C3N2C)o1 (centres undefined),"inconclusive [inhibitor, partial curve, poor fit]"
21,CN1C(=O)/C(=C/c2ccccc2Cl)Sc2ccc(C(=O)NCc3cccnc3)cc21,"inconclusive [inhibitor, single point]"
22,O=C1CCCC2=C1C1O[C@](c3ccsc3)(Cc3c1ccc1ccccc31)O2,"inconclusive [inhibitor, single point]"
23,CCc1ccc(NC(=O)CSc2nc3ccccc3c(=O)n2CCCC(=O)NCCCN2CCOCC2)cc1,active: 7.38 µM
